About 1,800 (2.5%) of roughly 73,000 compounds were called active. This list was built around the results that the source calls inconclusive (neither active nor inactive); the mix of calls is not that of the screen. Calls come from the whole dose curve; as a rule, active = well fitted activation curve with a large enough effect; inconclusive = small, poorly fitted or top-dose-only effect; inactive = no such curve, though single readings can be large or run the other way. Potencies of inconclusive entries are left out as doubtful fits.
Assay: qHTS Assay for Agonists of the Thyroid Stimulating Hormone Receptor: Activators of Intracellular cAMP Concentrations in Parental HEK 293; note: nearly all actives have a fitted effect of over 55% in size; for activation: % of control where 0% means no effect
Settings: parental HEK293 CNG cAMP sensor, membrane potential fluorescence; activation: at 57.1 µM (top of the series) unless noted
Method in brief: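 Parental HEK 293 cells stably expressing a modified CNG channel (no TSHR) report cAMP rise as membrane depolarization. Membrane potential dye with 100 uM RO 20-1724 was loaded for 60 min at room temperature, then compound added for 30 min; fluorescence read at 590 nm.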
Potency is the fitted concentration of half-maximal effect; tags give direction and shape of the fitted curve.

Row | Structure (SMILES) | Potency | activation
1 | CCOC(=O)N1CCC(Nc2c(NCCCOC)c(=O)c2=O)CC1 | inconclusive [activator, single point] | –
2 | CCc1nccn1S(=O)(=O)c1ccc2ccccc2c1 | inconclusive [activator, partial curve] | –
3 | Cc1onc(-c2ccccc2)c1C(=O)Nc1cccc(OC(C)C)c1 | inconclusive [activator, single point] | –
4 | COc1ncc2nc(-c3cc(F)cc(F)c3)c(=O)n(C3CC3)c2n1 | inconclusive [activator, full curve, poor fit] | –
5 | COc1ccc2c(c1)CCc1c(C(=O)N3CCCc4ccccc43)noc1-2 | inconclusive [activator, single point] | –
6 | COc1cc(-c2nc(-c3ccc(Br)o3)no2)cc(OC)c1OC | – | inactive: 5.16%
7 | CCCC(CCC(=O)OC)(C(=O)OCC)c1csc(N)n1 (stereo unspecified) | inconclusive [activator, single point] | –
8 | O=C1NC(=O)C(CC(=O)N(Cc2ccco2)C2(C(=O)NC3CCCC3)CCCCC2)N1 (stereo unspecified) | inconclusive [activator, single point] | –
9 | Cc1cccc(-n2c(SCc3cc(=O)n4ccsc4n3)nc3ccccc32)c1 | inconclusive [activator, partial curve] | –
10 | Cn1c(=O)c2c(SCc3cccnc3)nc(C3CC3)nc2n(C)c1=O | – | inactive: 7.26%
11 | Cc1ccc(S(=O)(=O)N2CCN(C(=O)CN3CCc4ccccc4C3)CC2)cc1 | active: 10 µM | –
12 | NCCC[C@@H](CC(=O)N[C@@H]1CCNC[C@H]1C(=O)N[C@H](CC(=O)N[C@@H](CCC(=O)O)CC(=O)O)Cc1ccccc1)NC(=O)C[C@H](Cc1c[nH]c2ccccc12)NC(=O)[C@@H]1CNCC[C@H]1N | inconclusive [activator, single point] | –
13 | CCCCc1ccc(C(=O)NC(C(=O)O)C(C)C)cc1 (stereo unspecified) | – | inactive: 0.665%
14 | O=S(=O)(c1ccccc1)c1nc(-c2ccco2)oc1N1CCCCCC1 | inconclusive [activator, partial curve] | –
15 | Cc1[nH]c2ccccc2c1SCC(=O)N1CCOCC1 | inconclusive [activator, single point] | –
16 | COc1cc(SC)ccc1C(=O)N1CCCCCC1 | inconclusive [activator, single point] | –
17 | CCOC(=O)c1oc2ccccc2c1CSc1nnnn1-c1ccc(OC)cc1 | active: 15.8 µM | –
18 | O=C(NC1CCCCC1)C(c1ccco1)N(Cc1ccco1)C(=O)c1ccco1 (stereo unspecified) | active: 15.8 µM | –
19 | CCN1CCN(Cc2nc3c(c(=O)n(C)c(=O)n3C)n2CCc2ccccc2)CC1 | inconclusive [activator, single point] | –
20 | O=C(Nc1cccnc1)C1CCCN1S(=O)(=O)c1ccc(Cl)c(Cl)c1 (stereo unspecified) | – | inactive: 4.17%
21 | CCn1c(=N)c(C(=O)NC)cc2c(=O)n3cccc(C)c3nc21 | – | inactive: -6.86%
22 | COC(=O)c1ccc(OCC2c3cc(OC)c(OC)cc3CCN2C(=O)C2CC2)cc1 (stereo unspecified) | inconclusive [activator, partial curve] | –

Row | Structure (SMILES) | Potency | activation
23 | COC(=O)C1(C)C=CC2(CCCCC2)N1C(=O)c1ccccc1 (stereo unspecified) | inconclusive [activator, single point] | –
24 | CCn1c(SCC(=O)Nc2cc(C)ccc2C)nc2c(c1=O)SC(C)C2 (stereo unspecified) | inconclusive [activator, partial curve] | –
25 | COc1ccc(CN(Cc2cc3ccc(C)cc3[nH]c2=O)Cc2nnnn2C2CCCC2)cc1 | inconclusive [activator, partial curve] | –
26 | COc1cccc(Nc2ncc3ncc(=O)n(C[C@H]4CCCO4)c3n2)c1 | inconclusive [activator, partial curve] | –
27 | COCCn1c(C)cc(C(=O)COC(=O)c2cc3c(s2)CCC3)c1C | inconclusive [activator, single point] | –
28 | CC(=O)Nc1nonc1-c1ccccc1 | inconclusive [activator, single point] | –
29 | O=C1NCCCc2nc(Oc3ccccc3)sc21 | inconclusive [activator, single point] | –
30 | CCCCCOC(=O)c1cc(=O)[nH]c2ccccc12 | inconclusive [activator, single point] | –
31 | CC(=O)COc1ccc2c3c(c(=O)oc2c1)CCCC3 | – | inactive: 6.31%
32 | O=C(Nc1ccccc1)N1CC=C(c2ccccc2)CC1 | inconclusive [activator, single point] | –
33 | CCC(c1nnnn1Cc1ccco1)N(CCc1ccccc1)Cc1cc2cccc(C)c2[nH]c1=O (stereo unspecified) | active: 12.6 µM | –
34 | O=C(c1ccc(S(=O)(=O)N2CCC(c3nc4ccccc4s3)CC2)cc1)N1CCOCC1 | inconclusive [activator, single point] | –
35 | O=S(=O)(Nc1ccc(O)c(CN2CCCCC2)c1)c1ccccc1 | inconclusive [activator, single point] | –
36 | C=CCN1C(=O)C(O)(CC(=O)c2ccc(-n3cccc3)cc2)c2ccccc21 (stereo unspecified) | inconclusive [activator, single point] | –
37 | CCOc1ccc(-n2cc(C(=O)N3CCN(C)CC3)c3cc(OC)c(OC)cc3c2=O)cc1 | inconclusive [activator, single point] | –
38 | COc1cccc2c(=O)n(CC(=O)N3CCN(c4ccccc4)CC3)ccc12 | inconclusive [activator, partial curve] | –
39 | Cc1cccn2cc(-c3ccccc3)nc12 | inconclusive [activator, single point] | –
40 | C[C@H]1C2=C3C(CC[C@H]4C(OCc5ccc(F)cc5C(F)(F)F)OC[C@](C)([C@@H]34)N(C(=O)OC(C)(C)C)C2)C2COC(=O)OCC21 (stereo partly specified) | – | inactive: 16.3%
41 | CC(C)C12CN3CC(C(C)C)(CN(C1)C3c1ccccc1)C2O (stereo unspecified) | inconclusive [activator, partial curve] | –
42 | OC1CCN(c2ncnc3c2nnn3Cc2c(F)cccc2Cl)CC1 | inconclusive [activator, full curve, poor fit] | –
43 | CNc1nc(SCC(=O)OC)nc(N2CCOCC2)n1 | inconclusive [activator, single point] | –
44 | CCC(C)(C)n1nnnc1CN(Cc1ccc(Cl)cc1)Cc1ccco1 | active: 10 µM | –

Row | Structure (SMILES) | Potency | activation
45 | O=C(Nc1ccccc1C(=O)NC(Cc1c[nH]c2ccccc12)C(=O)O)c1ccco1 (stereo unspecified) | – | inactive: 13.2%
46 | Cc1cccc(C)c1-n1nnnc1S(=O)(=O)Cc1ccccc1Cl | inconclusive [activator, partial curve] | –
47 | CCCC(C(=O)NCc1ccco1)N(C(=O)CNS(=O)(=O)c1ccc(Cl)cc1)C1CCCC1 (stereo unspecified) | – | inactive: 6.56%
48 | O=C(c1ccc(-c2ccccc2)cc1)N1CCN(c2ncccn2)CC1 | active: 25.1 µM | –
49 | CCCCNc1nc(N(C)c2ccccc2)nc(-n2ccnc2)n1 | inconclusive [activator, single point] | –
50 | CCOC(=O)C1CCN(CC(=O)Nc2c(C(=O)OC)[nH]c3ccc(Cl)cc23)CC1 | inconclusive [activator, single point] | –
51 | O=C(NC1CCCCCC1)c1cc(S(=O)(=O)N2CCC3(CC2)OCCO3)ccc1F | inconclusive [activator, partial curve] | –
52 | O=C(OCc1ccc2c(c1)OCO2)c1ccc(S(=O)(=O)N2CCCC2)cc1 | inconclusive [activator, partial curve] | –
53 | O=C(c1cnn2c(C(F)F)cc(-c3ccccc3)nc12)N1CCSCC1 | inconclusive [activator, partial curve] | –
54 | O=C(COC(=O)c1cc(-c2ccco2)nc2ccccc12)NCc1ccc2c(c1)OCO2 | inconclusive [activator, single point] | –
55 | O=C(Nc1ccc(N2CCN(C(=O)c3ccco3)CC2)c(Cl)c1)c1cccs1 | inconclusive [activator, single point] | –
56 | Cc1ccc(S(=O)(=O)Oc2ccc(N=Nc3ccc(-c4ccc(N=Nc5c(O)ccc6cc(S(=O)(=O)O)cc(S(=O)(=O)O)c56)c(C)c4)cc3C)cc2)cc1 | – | inactive: 12.3%
57 | CCCc1cc(=O)n2[nH]c(NCc3ccc(Cl)cc3Cl)nc2n1 | inconclusive [activator, single point] | –
58 | CCCCCn1c(CN2CCN(c3cccc(Cl)c3)CC2)nc2c1c(=O)n(C)c(=O)n2C | inconclusive [activator, single point] | –
59 | Cc1nc(NCc2ccccc2)c2nc(-c3ccccc3)n(CCCN(C)C)c2n1 | inconclusive [activator, partial curve] | –
60 | COC(=O)[C@@]1(Cc2ccc(F)cc2)[C@H]2c3cc(C(=O)N4CCCC4)n(CCCNc4ncc(C(F)(F)F)cc4Cl)c3C[C@H]2CN1C(=O)c1ccccc1 | inconclusive [activator, full curve, poor fit] | –
61 | O=C(NCc1ccco1)c1cc2nc(C3CC3)cc(C(F)(F)F)n2n1 | – | inactive: 2.31%
62 | Cc1cc(NC(=O)c2cc(-c3ccco3)on2)no1 | inconclusive [activator, single point] | –
63 | O=C(N/N=C\c1ccccc1O)c1ccccc1O | – | inactive: 2.5%
64 | CN(C)C(=O)c1ccc(-c2nccc(NCc3cccs3)n2)cc1 | – | inactive: -3.1%
65 | O=C(Nc1ccccc1)N1CCCC(c2nc(-c3cccs3)no2)C1 (stereo unspecified) | – | inactive: 14.9%
66 | Cc1ccc2nc3c(cc2c1)CN(Cc1ccco1)C(=NCC1CCCO1)S3 (stereo unspecified) | inconclusive [activator, partial curve, poor fit] | –
